Assay results as given in the BET-seq Pho4 binding data (Le et al. 2018).
This is one part of the list. Values were computed here from the reads of four pooled replicates and scatter widely.

target: T1, Pho4 (S. cerevisiae) (UniProt P07270); assay: relative binding free energy (BET-seq); higher = weaker binding; conditions: reference: library average
T1 sequence: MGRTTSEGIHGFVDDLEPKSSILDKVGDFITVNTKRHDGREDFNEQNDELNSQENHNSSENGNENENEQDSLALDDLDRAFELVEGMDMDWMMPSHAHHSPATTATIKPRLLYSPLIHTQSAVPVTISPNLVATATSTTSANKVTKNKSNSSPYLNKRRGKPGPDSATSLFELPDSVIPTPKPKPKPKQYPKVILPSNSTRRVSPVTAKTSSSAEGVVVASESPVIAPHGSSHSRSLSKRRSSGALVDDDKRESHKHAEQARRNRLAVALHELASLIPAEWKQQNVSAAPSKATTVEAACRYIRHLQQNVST

Sequence | relative binding free energy
CTTGTCACGTGATGGA | 0.24 kcal/mol
GCTGTCACGTGTGCGG | 0.03 kcal/mol
TAGGGCACGTGTGGGC | -0.01 kcal/mol
GGAAGCACGTGTTGTA | -0.19 kcal/mol
AATTTCACGTGTTGTG | 0.18 kcal/mol
TTATGCACGTGGAACT | 0.07 kcal/mol
ATGTACACGTGCGGGA | 0.04 kcal/mol
TTCGGCACGTGATTTA | -0.07 kcal/mol
TGGAGCACGTGTGGGA | 0 kcal/mol
GGAAACACGTGGTAAG | 0 kcal/mol
AGATGCACGTGTTTTA | -0.18 kcal/mol
GTGGGCACGTGATCTA | 0.01 kcal/mol
ATCGGCACGTGGTACG | -0.19 kcal/mol
AGATTCACGTGGAAGT | 0.25 kcal/mol
GGTTACACGTGATATT | 0.32 kcal/mol
GCGTGCACGTGGGGTG | -0.15 kcal/mol
CGGGGCACGTGATGGT | 0.06 kcal/mol
TCGCGCACGTGAGTGT | -0.03 kcal/mol
GGAGTCACGTGGTATA | 0.21 kcal/mol
TGGATCACGTGGCTCG | 0.12 kcal/mol
TAGGGCACGTGGAGAC | -0.02 kcal/mol
GGGTTCACGTGTGTCA | 0.35 kcal/mol

Sequence | relative binding free energy
TAGCACACGTGTATGG | 0.16 kcal/mol
GGGGTCACGTGGCGTG | 0.06 kcal/mol
TCGATCACGTGGTGGC | 0.24 kcal/mol
GTGGACACGTGGATTA | 0.07 kcal/mol
TAGAGCACGTGAGTAA | 0.12 kcal/mol
AATGTCACGTGAGAAG | 0.22 kcal/mol
TATGGCACGTGGGCGA | -0.26 kcal/mol
ATTGGCACGTGAATCT | 0.09 kcal/mol
AGTCGCACGTGTGGAT | -0.03 kcal/mol
AGTGGCACGTGTCAGT | -0.03 kcal/mol
GGGGGCACGTGAAGTT | 0.26 kcal/mol
GGAGACACGTGTGGGT | 0.13 kcal/mol
TTTGGCACGTGGCGCT | -0.2 kcal/mol
TTGATCACGTGGGGGC | 0.07 kcal/mol
TTGAACACGTGGTAAG | 0.24 kcal/mol
GGGTCCACGTGGTCTT | 0.04 kcal/mol
TTGATCACGTGTTGCT | 0.15 kcal/mol
TGATTCACGTGAGTGT | 0.42 kcal/mol
ACGTTCACGTGTTTTA | 0.29 kcal/mol
TAGCTCACGTGCTTGT | 0.23 kcal/mol
ATGGACACGTGGCAGT | -0.02 kcal/mol
CGTTTCACGTGTTAAG | 0.26 kcal/mol

Sequence | relative binding free energy
AGGTTCACGTGCGAAT | 0.26 kcal/mol
CTGTTCACGTGGTAGT | 0.1 kcal/mol
TAGTTCACGTGATATA | 0.33 kcal/mol
AAAGGCACGTGGGTAC | -0.14 kcal/mol
TATTTCACGTGATGTT | 0.26 kcal/mol
CGGTGCACGTGTAGTA | 0.11 kcal/mol
TGGGTCACGTGGTTAT | 0.18 kcal/mol
TGTTCCACGTGGGGGT | -0.02 kcal/mol
GTAACCACGTGGAGGG | -0.03 kcal/mol
GTTGTCACGTGACGTA | 0.23 kcal/mol
AGGTGCACGTGGTACT | -0.24 kcal/mol
TTTGACACGTGTTCGT | 0 kcal/mol
CAAGTCACGTGTGTGT | 0.17 kcal/mol
GGTGGCACGTGCGTGT | -0.14 kcal/mol
TATTTCACGTGTTAGA | 0.31 kcal/mol
TAGTTCACGTGTCATG | 0.26 kcal/mol
GGCTACACGTGTTGTG | 0.11 kcal/mol
CCAGTCACGTGATGTT | 0.46 kcal/mol
GTAGACACGTGGTGGA | 0.04 kcal/mol
TTATACACGTGATGTA | 0.11 kcal/mol
TGCTTCACGTGTGGAT | 0.19 kcal/mol
ATTTGCACGTGTTAGC | 0.17 kcal/mol

Sequence | relative binding free energy
ATAATCACGTGAGGTT | 0.39 kcal/mol
GGATGCACGTGCGGTT | -0.03 kcal/mol
ATGGGCACGTGATAGT | -0.01 kcal/mol
GGGGTCACGTGTGTCA | 0.19 kcal/mol
TATCTCACGTGGTTTA | 0.19 kcal/mol
TTGGACACGTGTCATG | -0.06 kcal/mol
AGTATCACGTGTGTCT | 0.15 kcal/mol
TGTGGCACGTGTGATA | -0.16 kcal/mol
TGCTGCACGTGTGGGG | 0.06 kcal/mol
TATCTCACGTGGTAGG | 0.21 kcal/mol
GGTTTCACGTGACCGG | 0.42 kcal/mol
GTTTACACGTGAGCGT | 0.2 kcal/mol
GATGTCACGTGACGGA | 0.31 kcal/mol
TTAGTCACGTGTGACG | 0.07 kcal/mol
TGTGCCACGTGGGGCC | -0.32 kcal/mol
GCGAGCACGTGGTTGG | -0.03 kcal/mol
GTAGTCACGTGGACGT | 0.1 kcal/mol
GGCTTCACGTGAGGAT | 0.35 kcal/mol
AGAGGCACGTGGCATT | -0.14 kcal/mol
TTATGCACGTGCGCGG | -0.16 kcal/mol
GGTCACACGTGAGGTA | 0.5 kcal/mol
GGTAGCACGTGGCTGT | -0.18 kcal/mol

Sequence | relative binding free energy
TCGGGCACGTGCGGAG | -0.19 kcal/mol
GGGCTCACGTGGTTAT | 0.23 kcal/mol
GTCTACACGTGGAGGG | 0.09 kcal/mol
TACGGCACGTGGGGTA | -0.2 kcal/mol
TGGTGCACGTGATATT | 0.03 kcal/mol
TTGAGCACGTGTGAAT | 0.05 kcal/mol
TGGGCCACGTGGTGTC | -0.21 kcal/mol
GTTTGCACGTGCCTGG | 0.04 kcal/mol
AGGGACACGTGGATTT | -0.01 kcal/mol
GGCAACACGTGGGGTG | -0.12 kcal/mol
GTTCACACGTGGCGTG | -0.01 kcal/mol
GTATTCACGTGCTTGT | 0.24 kcal/mol
GGCGTCACGTGCGGGA | 0.02 kcal/mol
TAATGCACGTGCTGAG | 0.09 kcal/mol
GTAGCCACGTGAGGTG | 0.07 kcal/mol
CGTTACACGTGTTGCG | 0.07 kcal/mol
GACGTCACGTGGGGCT | -0.02 kcal/mol
TCGAACACGTGGTTGT | -0.08 kcal/mol
TGATGCACGTGGTGTT | 0.01 kcal/mol
TAACGCACGTGGGAGT | -0.26 kcal/mol
TTGTTCACGTGTACAG | 0.21 kcal/mol
ATTTTCACGTGGTAGC | 0.22 kcal/mol

Sequence | relative binding free energy
TTTACCACGTGGGGAT | -0.13 kcal/mol
GGCCTCACGTGGATGG | 0.24 kcal/mol
ATGGTCACGTGCCGTA | 0.06 kcal/mol
GGTGTCACGTGAGTGA | 0.25 kcal/mol
GGTAACACGTGGTGAA | 0.15 kcal/mol
TTTGGCACGTGGTCAT | -0.26 kcal/mol
TAATGCACGTGGAGTG | -0.09 kcal/mol
GTACCCACGTGGGGTG | -0.19 kcal/mol
GCGCGCACGTGCGGGG | -0.22 kcal/mol
ACTTACACGTGGGGTT | 0 kcal/mol
GGAAACACGTGCGGTG | 0.07 kcal/mol
TGGGGCACGTGGTCAG | -0.08 kcal/mol
TGATACACGTGGCTGT | -0.14 kcal/mol
AAAGACACGTGGTGTA | -0.16 kcal/mol
GTCTTCACGTGCTTGT | 0.3 kcal/mol
GGTTACACGTGGTGAA | 0.03 kcal/mol
TGATACACGTGTGCTA | 0.05 kcal/mol
AGGTACACGTGAGTCG | 0.26 kcal/mol
GAAGGCACGTGATTGG | -0.03 kcal/mol
TTTGACACGTGCGCTG | -0.05 kcal/mol
TGTTTCACGTGCCGTG | 0.06 kcal/mol
